According to patent US11384098B2, “Pyrrolobenzodiazepine-antibody conjugates” (priority 2017, dated 2022):

What was measured:
Lu-135 cells = assay: In vitro cytotoxicity of ConjA1, CellTiter-Glo; type: cell-based; settings: cell viability
Experimental: (§1) Flasks of either Lu135 cell or SK-N-FI cells were trypsin treated and the liberated cells were washed and re-suspended in fresh medium. The cell density was determined by mixing 1:1 with Trypan blue (0.4% (w/v) Sigma TB154) and counting clear/blue (live/dead) cells with a Luna II automated cell counter (Logos Biosystems). The cell suspension was diluted to the required seeding density (20×104/m1), dispensed into white 96-well flat bottomed microplates (50 μl/well) and incubated overnight.
(§2) A stock solution (1 ml) of ConjA1 (20 μg/ml) was made by dilution of filter-sterile ConjA1 into the same cell culture medium. A set of 8× 10-fold dilutions of stock ConjA1 was made in a sterile 24-well plate by serial transfer of 100 μl into 900 μl of cell culture medium. Each ConjA1 dilution was dispensed, 50 μl/well, into 4 replicate wells of the 96-well plate, containing cells suspension. Control wells received the same volume of culture medium only.
(§3) After the ConjA1 exposure period, cell viability was measured by Promega CellTiter-Glo by adding 100 μl/well, agitate for 2 mins and read on the Envision using the Luminescence protocol. Data were analysed using Graphpad Prism software.

SK-N-FI cells = assay: In vitro cytotoxicity of ConjA1, CellTiter-Glo; type: cell-based, human; settings: cell viability
Experimental: as §1, §2, §3

Hep3B cells = assay: In vitro cytotoxicity in 2D and 3D cell culture; type: cell-based
Experimental: (§4) Cells were seeded in onco-media (RPMI, 5% FBS, 2 mM L-alanyl-L-glutamine, 1 mM sodium pyruvate and 1% penicillin/streptomycin) in 384-well Elplasia plates pre-coated with pHEMA.
(§5) The ADC, ConjA1, and B12-1601 compounds were added 24 hours post cell seeding, with a starting concentration of 10 mg/mL, a 10-fold serial dilution across 9 concentrations in quadruplicate. The incubation times with the ADC's compounds were 5 days in 2D- and 7 days in 3D-cultures with media exchanges every 3 days, for a total of 14.
(§6) At the end of incubation period, cells were lysed and analyzed to determine cell viability. Cell proliferation end-point was analyzed as Percent of Control (POC) using the following formula: POC=relative cell count (compound wells)/relative cell count (vehicle control wells)×100%
(§7) Data were analysed using Graphpad Prism software.

A204 cells = assay: In vitro cytotoxicity in 2D and 3D cell culture; type: cell-based
Experimental: as §4, §5, §6, §7

[1] = Rat toxicology study, single intravenous dose tolerability and pharmacokinetics
[2] = test system: human liver cancer LI1097 tumour; assay: In vivo anti-tumor activity in liver cancer patient-derived xenograft (PDX) LI1097 model; set-up: species or system BALB/c nude mice; settings: for tumour growth: qd×1, up to day 51
Excerpt: In vivo anti-tumor activity in liver cancer patient-derived xenograft (PDX) LI1097 model LI1097 seed tumours were revived subcutaneously in NOD/SCID mice, and maintained subcutaneously in BALB/c nude mice before implantation. When the tumour volumes reached 700-1500 mm^3, tumours were collected and cut into pieces of about 2-3 mm3 in diameter. The tumours or tumour pieces were washed with ice cold RPM11640 media (without serum) and subsequently placed into ice cold media for use.
The skin of five-to-six week old, female BALB/c nude mice was disinfected at the right flank by iodophor before tumour implantation. Each mouse was inoculated without anesthesia, subcutaneously at the right upper flank with one primary human liver cancer LI1097 tumour fragment for tumour development.
After tumour inoculation, the animals were checked daily for morbidity and mortality. Tumour size was measured by caliper twice weekly in two dimensions. The tumour volume was expressed in mm^3 using the formula: TV=0.5 a×b2 where a and b are the long and short diameters of the tumour, respectively.
On study day 12, mice were randomised into 5 groups of 8 mice each; the mean tumour volume was ˜170 mm^3 across the cohort. Mice were dosed with the test agents on study day 13 (day 1, indicated by vertical dotted line in the graph). Test mice in this study received a single dose of their allocated test article and dose level on day 1 and tumour growth was monitored thereafter, up to day 51.

SK-N-FI xenograft = assay: In vivo anti-tumor activity in the neuroblastoma SK-N-FI xenograft model; settings: for tumour growth: qd×1, intravenous
[3] = highest dose tested (1.0 mg/kg), single dose
[4] = highest dose tested (1.0 mg/kg), day 60

B1: ConjA1 (conjugate)
heavy: QVQLVQSGAEVKKPGASVKVSCKGSGYTFTDYAMHWVRQAPGQGLEWIGVISTYYGNTNYNQKFKGKATMTVDKSTSTAYMELRSLRSDDTAVYYCARGGLREYYYAMDYWGQGTMVTVSS[human IgG1 constant region not shown]
light: DIVMTQSPDSLAVSLGERATINCKSSQSLLNSSNQKNYLAWYQQKPGQPPKLLVYFASTRESGVPDRFSGSGSGTDFTLTISSLQAEDVAVYYCQQHYSTPPTFGQGTKLEIKRTVAAPSVFIFPPSDEQLKSGTASVVCLLNNFYPREAKVQWKVDNALQSGNSQESVTEQDSKDSTYSLSSTLTLSKADYEKHKVYACEVTHQGLSSPVTKSFNRGEC
Lu-135 cells
  EC50 against Lu-135 cells: 0.01765 µg/mL
SK-N-FI cells
  EC50 against SK-N-FI cells: 0.1565 µg/mL
Hep3B cells; 2D culture, 5 days incubation
  IC50 2D: ~59.29 µg/mL
Hep3B cells; 3D culture, 7 days incubation
  IC50 3D: 0.2271 µg/mL
A204 cells; 2D culture, 5 days incubation
  IC50 2D: 0.006399 µg/mL
A204 cells; 3D culture, 7 days incubation
  IC50 3D: 0.00146 µg/mL
[1]; 5 mg/kg single intravenous dose
  bodyweight, lighter than the control group at the end of the study: around 15%
[1]; 5 mg/kg single intravenous dose, male rats
  clinical tolerability: clinically well tolerated
[1]; 5 mg/kg, day 8
  neutrophils reduced compared to concurrent control: around 95%
  white blood cell count: reduced
[1]; rat, 5 mg/kg
  half-life: 220 h
[1]; single intravenous dose
  MTD in rats: at least 5 mg/kg
[2]; 0.3 mg/kg, second after 1.0 mg/kg
  tumour growth: slowing of tumour growth
[2]; 1.0 mg/kg
  tumour growth: greatest slowing of tumour growth
[2]; [3]
  CR: 2/8
  PR: 3/8
SK-N-FI xenograft; 0.5 mg/kg, second after 1.0 mg/kg
  tumour growth: slowing of tumour growth
SK-N-FI xenograft; 1.0 mg/kg
  tumour growth: greatest slowing of tumour growth
SK-N-FI xenograft; [4]
  complete responder (CR): 4/9
  partial responders (PR): 1/9
  tumor-free survivor (TFS) at the end of the study: one
SK-N-FI xenograft; single dose at 0.5 or 1 mg/kg
  anti-tumor activity compared to vehicle- and isotype control ADC-treated mice: dose-dependent anti-tumor activity
